# The full ranking holds about 81,000 sequences; the median of “one-hybrid fitness for binding parS DNA” is about -0.17, and the highest 2% start at about 0.51. Some of the results follow.
# B1: Caulobacter ParB omega fusion; a variant is named by its letters at X, in order, B8GW30 (parent)
# chain: MESVVVGEPGMSEGRRGLGRGLSALLGEVDAAPAQAPGEQLGGSREAPIEILQRNPDQPRRTFREEDLEDLSNSIREKGVLQPILVRPSPDTAGEYQIVAGERAWRAAQRAGLKTVPIMVRELDDLAVLEIGIIENVQRADLNVLEEALSYKVLMEKFERTQENIAQTIGKSXSHVANXMRLLXLPDEVQSYLVSGELTAXHARAIAAAADPVALAKQIIEGGLSVRETEALARKAPNLSAGKSKGGRPPRVKDTDTQALESDLSSVLGLDVSIDHRGSTGTLTITYATLEQLDDLCNRLTRGI
# Variants of: B1
# Assay: one-hybrid fitness for binding parS DNA (scaled: cognate 1, non-cognate 0); higher = stronger binding
# Details: with parS DNA site
# Procedure, shortened: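 Values were rescaled so that cognate is 1 and non-cognate is 0. Each is a fitness, the log change in a variant's read ratio to wild type from Illumina reads of plasmids before and after selection, with three replicate libraries pooled and variants under 10 reads dropped. Selection of the Caulobacter ParB libraries, four specificity codons randomised, used E. coli USO with a HIS3 reporter, site 19 bp from the promoter, on M9-minus-histidine with 0.1 mM IPTG and 5 mM 3-AT for 48 hours at 37°C.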
row,Variant,one-hybrid fitness for binding parS DNA
1,QPPS,≤ 0.2
2,MSQV,≤ 0.2
3,PKLG,≤ 0.2
4,STMR,≤ 0.2
5,RTPN,0.211
6,RKEA,0.515
7,ECLC,≤ 0.2
8,ASCA,≤ 0.2
9,ALRT,≤ 0.2
10,GIVS,≤ 0.2
11,PYRI,≤ 0.2
12,TQRE,≤ 0.2
13,NREA,≤ 0.2
14,PLAY,≤ 0.2
15,ELFR,≤ 0.2
16,PPVR,≤ 0.2
17,IRFN,≤ 0.2
18,RSID,≤ 0.2
19,WGPD,≤ 0.2
20,MPDS,≤ 0.2
21,LVQR,≤ 0.2
22,NMGG,≤ 0.2
23,KVEI,≤ 0.2
24,RVFF,0.303

row,Variant,one-hybrid fitness for binding parS DNA
1,QCQL,≤ 0.2
2,RIID,≤ 0.2
3,CKPT,≤ 0.2
4,ICPR,≤ 0.2
5,KEMT,≤ 0.2
6,QNID,≤ 0.2
7,DVTY,≤ 0.2
8,ASQH,≤ 0.2
9,PWQR,≤ 0.2
10,MVRT,≤ 0.2
11,GSFP,≤ 0.2
12,LVVG,≤ 0.2
13,WMIG,≤ 0.2
14,GHVL,≤ 0.2
15,HMLT,≤ 0.2
16,PIKM,≤ 0.2
17,MHRV,≤ 0.2
18,QPAY,≤ 0.2
19,QKMC,≤ 0.2
20,VFYR,≤ 0.2
21,RVRM,0.392
22,FEYS,≤ 0.2
23,MIAS,≤ 0.2
24,TAAN,≤ 0.2

row,Variant,one-hybrid fitness for binding parS DNA
1,FRFR,≤ 0.2
2,SCCV,≤ 0.2
3,MQKR,≤ 0.2
4,YMQS,≤ 0.2
5,HPLW,≤ 0.2
6,AYAT,≤ 0.2
7,PFGW,≤ 0.2
8,DMQT,≤ 0.2
9,QAKG,≤ 0.2
10,DLPH,≤ 0.2
11,INST,≤ 0.2
12,FNAI,≤ 0.2
13,WEAC,≤ 0.2
14,LVVM,≤ 0.2
15,HLIR,≤ 0.2
16,NSGK,≤ 0.2
17,GTFD,≤ 0.2
18,RLVV,≤ 0.2
19,PYFT,≤ 0.2
20,SCLN,≤ 0.2
21,FFQG,≤ 0.2
22,LLTT,≤ 0.2
23,AGHC,≤ 0.2
24,DAMT,≤ 0.2

row,Variant,one-hybrid fitness for binding parS DNA
1,NHNS,≤ 0.2
2,VVHE,≤ 0.2
3,RKCQ,≤ 0.2
4,APLW,≤ 0.2
5,LSQV,≤ 0.2
6,AIVC,≤ 0.2
7,CVSW,≤ 0.2
8,AWWW,≤ 0.2
9,DPLL,≤ 0.2
10,CAKW,≤ 0.2
11,TLSG,≤ 0.2
12,RSQS,0.984
13,DSSP,≤ 0.2
14,VVDG,≤ 0.2
15,HTFT,≤ 0.2
16,RFWL,≤ 0.2
17,VYSH,≤ 0.2
18,PSGD,≤ 0.2
19,RWRW,0.211
20,KMAT,≤ 0.2
21,PFAC,≤ 0.2
22,SPMW,≤ 0.2
23,TVAF,≤ 0.2
24,YCQA,≤ 0.2

row,Variant,one-hybrid fitness for binding parS DNA
1,VLSS,≤ 0.2
2,VPKG,≤ 0.2
3,STIA,≤ 0.2
4,NMMY,≤ 0.2
5,TTKD,≤ 0.2
6,VCQW,≤ 0.2
7,TMPV,≤ 0.2
8,RRVQ,≤ 0.2
9,VIET,≤ 0.2
10,DSEV,≤ 0.2
11,VGPW,≤ 0.2
12,WCGR,≤ 0.2
13,SPSH,≤ 0.2
14,LFHS,≤ 0.2
15,MNMR,≤ 0.2
16,AVYM,≤ 0.2
17,TIVI,≤ 0.2
18,QAPI,≤ 0.2
19,SPPP,≤ 0.2
20,CAVC,≤ 0.2
21,TTDN,≤ 0.2
22,QTRI,≤ 0.2
23,AWIG,≤ 0.2
24,QKMS,≤ 0.2

row,Variant,one-hybrid fitness for binding parS DNA
1,VYHC,≤ 0.2
2,WYNR,≤ 0.2
3,SHCL,≤ 0.2
4,TNNK,≤ 0.2
5,HNLI,≤ 0.2
6,ARET,≤ 0.2
7,AEQT,≤ 0.2
8,LTVA,≤ 0.2
9,HCKG,≤ 0.2
10,MPCR,≤ 0.2
11,FAFT,≤ 0.2
12,YFVN,≤ 0.2
13,QCMN,≤ 0.2
14,GYLT,≤ 0.2
15,RGTD,≤ 0.2
16,EDEC,≤ 0.2
17,LITG,≤ 0.2
18,LRGM,≤ 0.2
19,SFQP,≤ 0.2
20,MSNY,≤ 0.2
21,QSYG,≤ 0.2
22,SYII,≤ 0.2
23,TAVD,≤ 0.2
24,WQRR,≤ 0.2

row,Variant,one-hybrid fitness for binding parS DNA
1,NARL,≤ 0.2
2,KMYS,≤ 0.2
3,EANW,≤ 0.2
4,ITHY,≤ 0.2
5,KTHE,≤ 0.2
6,LAKQ,≤ 0.2
7,RRPY,0.315
8,YIAE,≤ 0.2
9,AYTW,≤ 0.2
10,FNLV,≤ 0.2
11,HAHF,≤ 0.2
12,HWKY,≤ 0.2
13,LRDR,≤ 0.2
14,RGTN,0.25
15,GSHY,≤ 0.2
16,LIAN,≤ 0.2
17,RGWL,≤ 0.2
18,LRNK,≤ 0.2
19,RFVS,0.892
20,IAAF,≤ 0.2
21,SQYM,≤ 0.2
22,RMRI,≤ 0.2
23,AESY,≤ 0.2
24,WDSC,≤ 0.2

row,Variant,one-hybrid fitness for binding parS DNA
1,AMDT,≤ 0.2
2,WCMR,≤ 0.2
3,CSTC,≤ 0.2
4,SFVC,≤ 0.2
5,CILC,≤ 0.2
6,KVKR,≤ 0.2
7,WIYR,≤ 0.2
8,VPMS,≤ 0.2
9,LDSG,≤ 0.2
10,HWDS,≤ 0.2
11,SHGC,≤ 0.2
12,WLTN,≤ 0.2
13,DVDM,≤ 0.2
14,YLNV,≤ 0.2
15,RRSW,≤ 0.2
16,YPRC,≤ 0.2
17,RRDV,≤ 0.2
18,DPMT,≤ 0.2
19,HFAY,≤ 0.2
20,YGMG,≤ 0.2
21,DESY,≤ 0.2
22,VCHG,≤ 0.2
23,GNLR,≤ 0.2
24,HIVC,≤ 0.2

row,Variant,one-hybrid fitness for binding parS DNA
1,QQLK,≤ 0.2
2,NIAV,≤ 0.2
3,GGFC,≤ 0.2
4,LRVY,≤ 0.2
5,DPDY,≤ 0.2
6,QIRE,≤ 0.2
7,PQFV,≤ 0.2
8,RGVG,0.502
9,DRSY,≤ 0.2
10,DPNG,≤ 0.2
11,NDLT,≤ 0.2
12,WSSW,≤ 0.2
13,PRKC,≤ 0.2
14,HIIL,≤ 0.2
15,RQVI,≤ 0.2
16,PQQQ,≤ 0.2
17,DHDT,≤ 0.2
18,MLQL,≤ 0.2
19,GTTV,≤ 0.2
20,RWQR,≤ 0.2
21,TIML,≤ 0.2
22,SQND,≤ 0.2
23,LRNH,≤ 0.2
24,PSTI,≤ 0.2

row,Variant,one-hybrid fitness for binding parS DNA
1,HDKT,≤ 0.2
2,HKSG,≤ 0.2
3,RAEL,≤ 0.2
4,NRQH,≤ 0.2
5,DGQC,≤ 0.2
6,TDPF,≤ 0.2
7,MCKG,≤ 0.2
8,VFTG,≤ 0.2
9,PYSD,≤ 0.2
10,WAKC,≤ 0.2
11,LNLW,≤ 0.2
12,PGSG,≤ 0.2
13,AQHN,≤ 0.2
14,QMDK,≤ 0.2
15,KSVA,≤ 0.2
16,SWSM,≤ 0.2
17,RKQE,≤ 0.2
18,QPKP,≤ 0.2
19,EQVS,≤ 0.2
20,SGAR,≤ 0.2
21,SKAS,≤ 0.2
22,GCSC,≤ 0.2
23,ECQG,≤ 0.2
24,NWRS,≤ 0.2

row,Variant,one-hybrid fitness for binding parS DNA
1,LNCP,≤ 0.2
2,RGPG,0.298
3,SAYW,≤ 0.2
4,TSVA,≤ 0.2
5,DHAS,≤ 0.2
6,ANYR,≤ 0.2
7,VPYL,≤ 0.2
8,YRQC,≤ 0.2
9,HVTE,≤ 0.2
10,LAVT,≤ 0.2
11,VVAA,≤ 0.2
12,QHNV,≤ 0.2
13,DRWT,≤ 0.2
14,MHRC,≤ 0.2
15,IPPT,≤ 0.2
16,RHIH,≤ 0.2
17,QIPI,≤ 0.2
18,DCKT,≤ 0.2
19,CATG,≤ 0.2
20,PVHT,≤ 0.2
21,RLDS,1.01
22,RMRT,0.812
23,FSTL,≤ 0.2
24,PSMY,≤ 0.2

row,Variant,one-hybrid fitness for binding parS DNA
1,LDFN,≤ 0.2
2,TCAA,≤ 0.2
3,FTIV,≤ 0.2
4,SHAE,≤ 0.2
5,GCIR,≤ 0.2
6,TANI,≤ 0.2
7,QSRW,≤ 0.2
8,CPWP,≤ 0.2
9,KLAG,≤ 0.2
10,VLEM,≤ 0.2
11,ATYA,≤ 0.2
12,TCLF,≤ 0.2
13,HILC,≤ 0.2
14,NTPP,≤ 0.2
15,EVRT,≤ 0.2
16,GCVC,≤ 0.2
17,LYFR,≤ 0.2
18,QNQW,≤ 0.2
19,YIPV,≤ 0.2
20,MGDR,≤ 0.2
21,SLLP,≤ 0.2
22,YHGV,≤ 0.2
23,DVFR,≤ 0.2
24,HRTK,≤ 0.2

row,Variant,one-hybrid fitness for binding parS DNA
1,PVAV,≤ 0.2
2,EVRG,≤ 0.2
3,PTSY,≤ 0.2
4,QQRP,≤ 0.2
5,LDRC,≤ 0.2
6,RYVY,0.357
7,NASV,≤ 0.2
8,YKPE,≤ 0.2
9,HERV,≤ 0.2
10,MFNV,≤ 0.2
11,NDIF,≤ 0.2
12,QCPS,≤ 0.2
13,VTNG,≤ 0.2
14,SDRL,≤ 0.2
15,GNRS,≤ 0.2
16,IRFS,≤ 0.2
17,CLTD,≤ 0.2
18,DGWG,≤ 0.2

# Source: a collection of fitness landscapes (doi:10.1016/j.celrep.2020.107928)
